Part of at least one peptide drawing is inferred or uncertain, most often the ends. Starred links: 1 amine or outer side, 2 acyl side, 3 side chain; linkers in the order of their positions; H or OH if unused. Non-standard residues stand in square brackets, D forms with d. Residues, ends and D or L forms follow the SMILES beside them. Groups on a side chain read outwards from the residue. *: point of attachment. C20 diacid = O=C(O)CCCCCCCCCCCCCCCCCCC(=O)*; C18 diacid = O=C(O)CCCCCCCCCCCCCCCCC(=O)*; C17 diacid = O=C(O)CCCCCCCCCCCCCCCC(=O)*; γGlu = O=C(O)[C@H](CCC(=O)[*:2])N[*:1]; NMeY = CN[C@@H](Cc1ccc(O)cc1)C(=O)O; AEEA = NCCOCCOCC(=O)O; Aib = CC(C)(N)C(=O)O
Test system: C57BL/6J mice
Test: Oral glucose tolerance test (OGTT)
Type: in vivo
Settings: 24 hours before glucose loading
Protocol: An oral glucose tolerance test (OGTT) was carried out using C57BL/6J mice with a 50% dextrose solution dosed at 5 ml/kg. Testing concentrations of 0.1 nmol/kg, 0.3 nmmol/kg, 3 nmol/kg or 10 nmol/kg were selected depending on the peptide. Each peptide or a vehicle (control group) was subcutaneously administered 24 hours (unless shown otherwise) before glucose loading and the blood glucose was measured at 0, 15, 30, and 60 minutes after glucose dosing.
% inhibition=(1−(AUC cpd−AUC naïve/AUC veh−AUC naïve))×100.

| Structure (SMILES) | Oral Glucose Tolerance Test Percent decrease in blood glucose AUC (%) over 60 mins (3 nmol/kg s.c.) | Oral Glucose Tolerance Test Percent decrease in blood glucose AUC (%) over 60 mins (10 nmol/kg s.c.) [%] | Oral Glucose Tolerance Test Percent decrease in blood glucose AUC (%) over 60 mins (0.1 nmol/kg s.c.) |
| --- | --- | --- | --- |
| CC[C@H](C)[C@H](NC(=O)[C@H](CO)NC(=O)[C@H](Cc1ccc(O)cc1)NC(=O)[C@H](CC(=O)O)NC(=O)[C@H](CO)NC(=O)[C@@H](NC(=O)[C@H](Cc1ccccc1)NC(=O)[C@@H](NC(=O)CNC(=O)[C@H](CCC(=O)O)NC(=O)C(C)(C)NC(=O)[C@H](Cc1ccc(O)cc1)NC)[C@@H](C)O)[C@@H](C)CC)C(=O)N[C@@H](C)C(=O)N[C@@H](CC(C)C)C(=O)N[C@@H](CC(=O)O)C(=O)N[C@@H](CCCNC(=N)N)C(=O)NC(C)(C)C(=O)N[C@@H](C)C(=O)N[C@@H](CCC(N)=O)C(=O)NC(C)(C)C(=O)N[C@@H](CCCCNC(=O)COCCOCCNC(=O)COCCOCCNC(=O)CC[C@H](NC(=O)CC[C@H](NC(=O)CCCCCCCCCCCCCCCCC(=O)O)C(=O)O)C(=O)O)C(=O)N[C@@H](Cc1ccccc1)C(=O)N[C@H](C(=O)N[C@@H](CC(N)=O)C(=O)N[C@@H](Cc1c[nH]c2ccccc12)C(=O)N[C@@H](CC(C)C)C(=O)N[C@@H](CC(C)C)C(=O)N[C@@H](C)C(=O)N[C@@H](CCC(N)=O)C(=O)N[C@@H](CCCCN)C(=O)NCC(=O)O)C(C)C [Compound 41, Me-Y-Aib-E-G-T-F-I-S-D-Y-S-I-A-L-D-R-Aib-A-Q-Aib-Km-F-V-N-W-L-L-A-Q-K-G-OH] (H-[NMeY][Aib]EGTFISDYSIALDR[Aib]AQ[Aib]K([AEEA-AEEA-γGlu-γGlu-C18 diacid])FVNWLLAQKG-OH) | 45% | 15 | – |
| CC[C@H](C)[C@H](NC(=O)[C@H](Cc1ccccc1)NC(=O)[C@@H](NC(=O)CNC(=O)[C@H](CCC(=O)O)NC(=O)C(C)(C)NC(=O)[C@H](Cc1ccc(O)cc1)NC)[C@@H](C)O)C(=O)N[C@@H](CO)C(=O)N[C@@H](CC(=O)O)C(=O)N[C@@H](Cc1ccc(O)cc1)C(=O)N[C@@H](CO)C(=O)N[C@H](C(=O)NC(C)(C)C(=O)N[C@@H](CC(C)C)C(=O)N[C@@H](CC(=O)O)C(=O)N[C@@H](CCCNC(=N)N)C(=O)NC(C)(C)C(=O)N[C@@H](C)C(=O)N[C@@H](CCC(N)=O)C(=O)NC(C)(C)C(=O)N[C@@H](CCCCNC(=O)COCCOCCNC(=O)COCCOCCNC(=O)CC[C@H](NC(=O)CC[C@H](NC(=O)CCCCCCCCCCCCCCCCCCC(=O)O)C(=O)O)C(=O)O)C(=O)N[C@@H](Cc1ccccc1)C(=O)N[C@H](C(=O)N[C@@H](CC(N)=O)C(=O)N[C@@H](Cc1c[nH]c2ccccc12)C(=O)N[C@@H](CC(C)C)C(=O)N[C@@H](CC(C)C)C(=O)N[C@@H](C)C(=O)N[C@@H](CCC(N)=O)C(=O)N[C@@H](CCCNC(=N)N)C(=O)NCC(=O)O)C(C)C)[C@@H](C)CC [Compound 159] (H-[NMeY][Aib]EGTFISDYSI[Aib]LDR[Aib]AQ[Aib]K([AEEA-AEEA-γGlu-γGlu-C20 diacid])FVNWLLAQRG-OH) | 54% (3 nmol/kg) | – | – |
| CC[C@H](C)[C@H](NC(=O)[C@H](CO)NC(=O)[C@H](Cc1ccc(O)cc1)NC(=O)[C@H](CC(=O)O)NC(=O)[C@H](CO)NC(=O)[C@@H](NC(=O)[C@H](Cc1ccccc1)NC(=O)[C@@H](NC(=O)CNC(=O)[C@H](CCC(=O)O)NC(=O)C(C)(C)NC(=O)[C@H](Cc1ccc(O)cc1)NC)[C@@H](C)O)[C@@H](C)CC)C(=O)N[C@@H](C)C(=O)N[C@@H](CC(C)C)C(=O)N[C@@H](CC(=O)O)C(=O)N[C@@H](CCCNC(=N)N)C(=O)NC(C)(C)C(=O)N[C@@H](C)C(=O)N[C@@H](CCC(N)=O)C(=O)NC(C)(C)C(=O)N[C@@H](CCCCNC(=O)COCCOCCNC(=O)COCCOCCNC(=O)CC[C@H](NC(=O)CC[C@H](NC(=O)CCCCCCCCCCCCCCCC(=O)O)C(=O)O)C(=O)O)C(=O)N[C@@H](Cc1ccccc1)C(=O)N[C@H](C(=O)N[C@@H](CC(N)=O)C(=O)N[C@@H](Cc1c[nH]c2ccccc12)C(=O)N[C@@H](CC(C)C)C(=O)N[C@@H](CC(C)C)C(=O)N[C@@H](C)C(=O)N[C@@H](CCC(N)=O)C(=O)N[C@@H](CCCNC(=N)N)C(N)=O)C(C)C [Compound 8] (H-[NMeY][Aib]EGTFISDYSIALDR[Aib]AQ[Aib]K([AEEA-AEEA-γGlu-γGlu-C17 diacid])FVNWLLAQR-NH2) | 54% (3 nmol/kg) | – | – |
| CC[C@H](C)[C@H](NC(=O)[C@H](Cc1ccccc1)NC(=O)[C@@H](NC(=O)CNC(=O)[C@H](CCC(=O)O)NC(=O)C(C)(C)NC(=O)[C@H](Cc1ccc(O)cc1)NC)[C@@H](C)O)C(=O)N[C@@H](CO)C(=O)N[C@@H](CC(=O)O)C(=O)N[C@@H](Cc1ccc(O)cc1)C(=O)N[C@@H](CO)C(=O)N[C@H](C(=O)NC(C)(C)C(=O)N[C@@H](CC(C)C)C(=O)N[C@@H](CC(=O)O)C(=O)N[C@@H](CCCNC(=N)N)C(=O)NC(C)(C)C(=O)N[C@@H](CCCCNC(=O)COCCOCCNC(=O)COCCOCCNC(=O)CC[C@H](NC(=O)CC[C@H](NC(=O)CCCCCCCCCCCCCCCCC(=O)O)C(=O)O)C(=O)O)C(=O)N[C@@H](CCC(N)=O)C(=O)NC(C)(C)C(=O)N[C@@H](CC(=O)O)C(=O)N[C@@H](Cc1ccccc1)C(=O)N[C@H](C(=O)N[C@@H](CC(N)=O)C(=O)N[C@@H](Cc1c[nH]c2ccccc12)C(=O)N[C@@H](CC(C)C)C(=O)N[C@@H](CC(C)C)C(=O)N[C@@H](C)C(=O)N[C@@H](CCC(N)=O)C(=O)N[C@@H](CCCNC(=N)N)C(=O)NCC(=O)O)C(C)C)[C@@H](C)CC [Compound 73] (H-[NMeY][Aib]EGTFISDYSI[Aib]LDR[Aib]K([AEEA-AEEA-γGlu-γGlu-C18 diacid])Q[Aib]DFVNWLLAQRG-OH) | 49% (3 nmol/kg) | – | – |
| CC[C@H](C)[C@H](NC(=O)[C@H](CO)NC(=O)[C@H](Cc1ccc(O)cc1)NC(=O)[C@H](CC(=O)O)NC(=O)[C@H](CO)NC(=O)[C@@H](NC(=O)[C@H](Cc1ccccc1)NC(=O)[C@@H](NC(=O)CNC(=O)[C@H](CCC(=O)O)NC(=O)C(C)(C)NC(=O)[C@H](Cc1ccc(O)cc1)NC)[C@@H](C)O)[C@@H](C)CC)C(=O)N[C@@H](C)C(=O)N[C@@H](CC(C)C)C(=O)N[C@@H](CC(=O)O)C(=O)N[C@@H](CCCNC(=N)N)C(=O)N[C@@H](CCCCNC(=O)CNC(=O)CNC(=O)CNC(=O)CNC(=O)CNC(=O)CC[C@H](NC(=O)CCCCCCCCCCCCCCCC(=O)O)C(=O)O)C(=O)N[C@@H](Cc1c[nH]cn1)C(=O)N[C@@H](CCC(N)=O)C(=O)NC(C)(C)C(=O)N[C@@H](CC(N)=O)C(=O)N[C@@H](Cc1ccccc1)C(=O)N[C@H](C(=O)N[C@@H](CC(N)=O)C(=O)N[C@@H](Cc1c[nH]c2ccccc12)C(=O)N[C@@H](CC(C)C)C(=O)N[C@@H](CC(C)C)C(=O)N[C@@H](C)C(=O)N[C@@H](CCC(N)=O)C(=O)N[C@@H](CCCNC(=N)N)C(=O)N1CCC[C@H]1C(=O)N[C@@H](CO)C(=O)N[C@@H](CO)C(=O)NCC(=O)N[C@@H](C)C(=O)N1CCC[C@H]1C(=O)N1CCC[C@H]1C(=O)N1CCC[C@H]1C(=O)N[C@@H](CO)C(=O)O)C(C)C [Compound 20] | 30% (3 nmol/kg) | – | – |
| CC[C@H](C)[C@H](NC(=O)[C@H](CO)NC(=O)[C@H](Cc1ccc(O)cc1)NC(=O)[C@H](CC(=O)O)NC(=O)[C@H](CO)NC(=O)[C@@H](NC(=O)[C@H](Cc1ccccc1)NC(=O)[C@@H](NC(=O)CNC(=O)[C@H](CCC(=O)O)NC(=O)C(C)(C)NC(=O)[C@H](Cc1ccc(O)cc1)NC)[C@@H](C)O)[C@@H](C)CC)C(=O)N[C@@H](C)C(=O)N[C@@H](CC(C)C)C(=O)N[C@@H](CC(=O)O)C(=O)N[C@@H](CCCNC(=N)N)C(=O)NC(C)(C)C(=O)N[C@@H](Cc1c[nH]cn1)C(=O)N[C@@H](CCC(N)=O)C(=O)NC(C)(C)C(=O)N[C@@H](CCCCNC(=O)COCCOCCNC(=O)COCCOCCNC(=O)CC[C@H](NC(=O)CC[C@H](NC(=O)CCCCCCCCCCCCCCCCC(=O)O)C(=O)O)C(=O)O)C(=O)N[C@@H](Cc1ccccc1)C(=O)N[C@H](C(=O)N[C@@H](CC(N)=O)C(=O)N[C@@H](Cc1c[nH]c2ccccc12)C(=O)N[C@@H](CC(C)C)C(=O)N[C@@H](CC(C)C)C(=O)N[C@@H](C)C(=O)N[C@@H](CCC(N)=O)C(=O)N[C@@H](CCCNC(=N)N)C(N)=O)C(C)C [Compound 18] (H-[NMeY][Aib]EGTFISDYSIALDR[Aib]HQ[Aib]K([AEEA-AEEA-γGlu-γGlu-C18 diacid])FVNWLLAQR-NH2) | – | – | 8% (0.1 nmol/kg) |
| CC[C@H](C)[C@H](NC(=O)[C@H](CO)NC(=O)[C@H](Cc1ccc(O)cc1)NC(=O)[C@H](CC(=O)O)NC(=O)[C@H](CO)NC(=O)[C@@H](NC(=O)[C@H](Cc1ccccc1)NC(=O)[C@@H](NC(=O)CNC(=O)[C@H](CCC(=O)O)NC(=O)C(C)(C)NC(=O)[C@H](Cc1ccc(O)cc1)NC)[C@@H](C)O)[C@@H](C)CC)C(=O)N[C@@H](C)C(=O)N[C@@H](CC(C)C)C(=O)N[C@@H](CC(=O)O)C(=O)N[C@@H](CCCNC(=N)N)C(=O)NC(C)(C)C(=O)N[C@@H](C)C(=O)N[C@@H](CCC(N)=O)C(=O)NC(C)(C)C(=O)N[C@@H](CCCCNC(=O)COCCOCCNC(=O)COCCOCCNC(=O)CC[C@H](NC(=O)CC[C@H](NC(=O)CCCCCCCCCCCCCCCCC(=O)O)C(=O)O)C(=O)O)C(=O)N[C@@H](Cc1ccccc1)C(=O)N[C@H](C(=O)N[C@@H](CC(N)=O)C(=O)N[C@@H](Cc1c[nH]c2ccccc12)C(=O)N[C@@H](CC(C)C)C(=O)N[C@@H](CC(C)C)C(=O)N[C@@H](C)C(=O)N[C@@H](CCC(N)=O)C(=O)N[C@@H](CO)C(=O)NCC(=O)O)C(C)C [Compound 42] (H-[NMeY][Aib]EGTFISDYSIALDR[Aib]AQ[Aib]K([AEEA-AEEA-γGlu-γGlu-C18 diacid])FVNWLLAQSG-OH) | 62% (3 nmol/kg) | – | – |
